# Laboratory results taken from the supplement of paper PMC8728848.
# The other results are listed elsewhere or left out.
# Legend:
# Assay in all cases: glycan array binding signal (z-score within array); higher = stronger binding
# Details in all cases: glycan notation: IUPAC condensed, linker removed
# [1] = molecular target: Neu5Ac(a2-3)Gal(b1-3)GalNAc(b1-3)Gal(b1-4)GlcNAc
# Summary of the method: (§1)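 Glycan array data were curated from 3228 arrays in the Consortium for Functional Glycomics database and kept only where the protein sequence was available. Glycan names were converted to IUPAC-condensed notation, and columns mapping to the same glycan were averaged. The binding signal is a within-array Z-score, averaged across arrays of the same protein sequence at different concentrations or buffers and across linkers. Negative Z-scores can be read as non-binding.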
# [2] = molecular target: Neu5Ac(a2-3)Gal(b1-3)GalNAc(b1-4)[Neu5Ac(a2-3)]Gal(b1-4)Glc
# Summary of the method: as §1
# [3] = molecular target: Neu5Ac(a2-3)Gal(b1-3)GalNAc6S
# Summary of the method: as §1
# [4] = molecular target: Neu5Ac(a2-3)Gal(b1-3)GlcNAc
# Summary of the method: as §1
# [5] = molecular target: Neu5Ac(a2-3)Gal(b1-3)GlcNAc6S
# Summary of the method: as §1
# [6] = molecular target: Neu5Ac(a2-3)Gal(b1-3)[Fuc(a1-4)]GlcNAc
# Summary of the method: as §1
# [7] = molecular target: Neu5Ac(a2-3)Gal(b1-3)[Fuc(a1-4)]GlcNAc(b1-3)Gal(b1-4)[Fuc(a1-3)]GlcNAc
# Summary of the method: as §1
# [8] = molecular target: Neu5Ac(a2-3)Gal(b1-3)[Neu5Ac(a2-3)Gal(b1-4)]GlcNAc
# Summary of the method: as §1
# [9] = molecular target: Neu5Ac(a2-3)Gal(b1-3)[Neu5Ac(a2-6)]GalNAc
# Summary of the method: as §1
# [10] = molecular target: Neu5Ac(a2-3)Gal(b1-4)Glc
# Summary of the method: as §1
# [11] = molecular target: Neu5Ac(a2-3)Gal(b1-4)GlcNAc
# Summary of the method: as §1
# [12] = molecular target: Neu5Ac(a2-3)Gal(b1-4)GlcNAc(b1-2)Man(a1-3)[Neu5Ac(a2-3)Gal(b1-4)GlcNAc(b1-2)Man(a1-6)]Man(b1-4)GlcNAc(b1-4)GlcNAc
# Summary of the method: as §1
# [13] = molecular target: Neu5Ac(a2-3)Gal(b1-4)GlcNAc(b1-3)Gal(b1-4)GlcNAc
# Summary of the method: as §1
# [14] = molecular target: Neu5Ac(a2-3)Gal(b1-4)GlcNAc(b1-3)Gal(b1-4)GlcNAc(b1-3)Gal(b1-4)GlcNAc
# Summary of the method: as §1
# [15] = molecular target: Neu5Ac(a2-3)Gal(b1-4)GlcNAc(b1-3)Gal(b1-4)[Fuc(a1-3)]GlcNAc
# Summary of the method: as §1
# [16] = molecular target: Neu5Ac(a2-3)Gal(b1-4)GlcNAc6S
# Summary of the method: as §1
# [17] = molecular target: Neu5Ac(a2-3)Gal(b1-4)[Fuc(a1-3)]GlcNAc
# Summary of the method: as §1
# [18] = molecular target: Neu5Ac(a2-3)Gal(b1-4)[Fuc(a1-3)]GlcNAc(b1-3)Gal
# Summary of the method: as §1
# [19] = molecular target: Neu5Ac(a2-3)Gal(b1-4)[Fuc(a1-3)]GlcNAc(b1-3)Gal(b1-4)GlcNAc
# Summary of the method: as §1
# [20] = molecular target: Neu5Ac(a2-3)Gal(b1-4)[Fuc(a1-3)]GlcNAc(b1-3)Gal(b1-4)[Fuc(a1-3)]GlcNAc(b1-3)Gal(b1-4)[Fuc(a1-3)]GlcNAc
# Summary of the method: as §1
# [21] = molecular target: Neu5Ac(a2-3)Gal(b1-4)[Fuc(a1-3)]GlcNAc6S
# Summary of the method: as §1
# [22] = molecular target: Neu5Ac(a2-3)Gal6S(b1-4)GlcNAc
# Summary of the method: as §1
# [23] = molecular target: Neu5Ac(a2-3)Gal6S(b1-4)[Fuc(a1-3)]GlcNAc
# Summary of the method: as §1
# [24] = molecular target: Neu5Ac(a2-3)GalNAc
# Summary of the method: as §1
# [25] = molecular target: Neu5Ac(a2-3)GalNAc(b1-4)GlcNAc
# Summary of the method: as §1
# [26] = molecular target: Neu5Ac(a2-3)[GalNAc(b1-4)]Gal(b1-4)Glc
# Summary of the method: as §1
# [27] = molecular target: Neu5Ac(a2-3)[GalNAc(b1-4)]Gal(b1-4)GlcNAc
# Summary of the method: as §1
# [28] = molecular target: Neu5Ac(a2-3)[Neu5Ac(a2-6)]GalNAc
# Summary of the method: as §1
# [29] = molecular target: Neu5Ac(a2-6)Gal
# Summary of the method: as §1
# [30] = molecular target: Neu5Ac(a2-6)Gal(b1-4)Glc
# Summary of the method: as §1
# [31] = molecular target: Neu5Ac(a2-6)Gal(b1-4)GlcNAc
# Summary of the method: as §1
# [32] = molecular target: Neu5Ac(a2-6)Gal(b1-4)GlcNAc(b1-3)Gal(b1-4)GlcNAc
# Summary of the method: as §1
# [33] = molecular target: Neu5Ac(a2-6)Gal(b1-4)GlcNAc(b1-3)Gal(b1-4)[Fuc(a1-3)]GlcNAc(b1-3)Gal(b1-4)[Fuc(a1-3)]GlcNAc
# Summary of the method: as §1
# [34] = molecular target: Neu5Ac(a2-6)Gal(b1-4)GlcNAc6S
# Summary of the method: as §1
# [35] = molecular target: Neu5Ac(a2-6)GalNAc
# Summary of the method: as §1
# [36] = molecular target: Neu5Ac(a2-6)GalNAc(b1-4)GlcNAc
# Summary of the method: as §1
# [37] = molecular target: Neu5Ac(a2-8)Neu5Ac
# Summary of the method: as §1
# [38] = molecular target: Neu5Ac(a2-8)Neu5Ac(a2-3)Gal(b1-4)Glc
# Summary of the method: as §1
# [39] = molecular target: Neu5Ac(a2-8)Neu5Ac(a2-3)[GalNAc(b1-4)]Gal(b1-4)Glc
# Summary of the method: as §1
# [40] = molecular target: Neu5Ac(a2-8)Neu5Ac(a2-8)Neu5Ac
# Summary of the method: as §1
# [41] = molecular target: Neu5Ac(a2-8)Neu5Ac(a2-8)Neu5Ac(a2-3)Gal(b1-4)Glc
# Summary of the method: as §1
# [42] = molecular target: Neu5Ac(a2-8)Neu5Ac(a2-8)Neu5Ac(a2-3)[GalNAc(b1-4)]Gal(b1-4)Glc
# Summary of the method: as §1
# [43] = molecular target: Neu5Ac(a2-8)Neu5Ac(a2-8)Neu5Ac(a2-8)Neu5Ac(a2-3)[GalNAc(b1-4)]Gal(b1-4)Glc
# Summary of the method: as §1
# [44] = molecular target: Neu5Ac(b1-6)GalNAc
# Summary of the method: as §1
# [45] = molecular target: Neu5Ac(b2-6)Gal(b1-4)GlcNAc
# Summary of the method: as §1
# [46] = molecular target: Neu5Ac9Ac(a2-6)Gal(b1-4)GlcNAc
# Summary of the method: as §1
# [47] = molecular target: Neu5Gc(a2-3)Gal(b1-3)GlcNAc
# Summary of the method: as §1
# [48] = molecular target: Neu5Gc(a2-3)Gal(b1-3)[Fuc(a1-4)]GlcNAc
# Summary of the method: as §1
# [49] = molecular target: Neu5Gc(a2-3)Gal(b1-4)Glc
# Summary of the method: as §1
# [50] = molecular target: Neu5Gc(a2-3)Gal(b1-4)GlcNAc
# Summary of the method: as §1
# [51] = molecular target: Neu5Gc(a2-3)Gal(b1-4)[Fuc(a1-3)]GlcNAc
# Summary of the method: as §1
# [52] = molecular target: Neu5Gc(a2-6)Gal(b1-4)GlcNAc
# Summary of the method: as §1
# [53] = molecular target: Neu5Gc(a2-6)GalNAc
# Summary of the method: as §1
binder,measurement,setting,value
LKITALY (Gibberella zeae) (protein) MGNFHESSNNIWLEDGHILHAECGNGEGDYVESTLDLDYYIGNDDGSFSWGGENFSGSASNITLDIEGDDNIPVLRAELNPMDGDPVEANVNLSERIGNDCGTLIFLA,glycan array binding signal (z-score),[1],-0.34
same,glycan array binding signal (z-score),[2],-0.357
same,glycan array binding signal (z-score),[3],-0.343
same,glycan array binding signal (z-score),[4],-0.357
same,glycan array binding signal (z-score),[5],-0.336
same,glycan array binding signal (z-score),[6],-0.353
same,glycan array binding signal (z-score),[7],-0.363
same,glycan array binding signal (z-score),[8],-0.352
same,glycan array binding signal (z-score),[9],-0.36
same,glycan array binding signal (z-score),[10],0.124
same,glycan array binding signal (z-score),[11],3.05
same,glycan array binding signal (z-score),[12],-0.346
same,glycan array binding signal (z-score),[13],1.07
same,glycan array binding signal (z-score),[14],3.85
same,glycan array binding signal (z-score),[15],2.02
same,glycan array binding signal (z-score),[16],3.33
same,glycan array binding signal (z-score),[17],-0.222
same,glycan array binding signal (z-score),[18],-0.352
same,glycan array binding signal (z-score),[19],-0.353
same,glycan array binding signal (z-score),[20],-0.363
same,glycan array binding signal (z-score),[21],-0.348
same,glycan array binding signal (z-score),[22],-0.363
same,glycan array binding signal (z-score),[23],-0.362
same,glycan array binding signal (z-score),[24],-0.365
same,glycan array binding signal (z-score),[25],-0.354
same,glycan array binding signal (z-score),[26],-0.356
same,glycan array binding signal (z-score),[27],-0.346
same,glycan array binding signal (z-score),[28],-0.354
same,glycan array binding signal (z-score),[29],-0.36
same,glycan array binding signal (z-score),[30],1.43
same,glycan array binding signal (z-score),[31],-0.361
same,glycan array binding signal (z-score),[32],-0.108
same,glycan array binding signal (z-score),[33],-0.338
same,glycan array binding signal (z-score),[34],-0.371
same,glycan array binding signal (z-score),[35],-0.352
same,glycan array binding signal (z-score),[36],-0.356
same,glycan array binding signal (z-score),[37],-0.355
same,glycan array binding signal (z-score),[38],3.41
same,glycan array binding signal (z-score),[39],-0.355
same,glycan array binding signal (z-score),[40],-0.346
same,glycan array binding signal (z-score),[41],3.32
same,glycan array binding signal (z-score),[42],-0.349
same,glycan array binding signal (z-score),[43],-0.371
same,glycan array binding signal (z-score),[44],-0.363
same,glycan array binding signal (z-score),[45],-0.366
same,glycan array binding signal (z-score),[46],-0.357
same,glycan array binding signal (z-score),[47],-0.348
same,glycan array binding signal (z-score),[48],-0.358
same,glycan array binding signal (z-score),[49],3.32
same,glycan array binding signal (z-score),[50],3.69
same,glycan array binding signal (z-score),[51],-0.319
same,glycan array binding signal (z-score),[52],-0.356
same,glycan array binding signal (z-score),[53],-0.34
